Data published in US7351409B2, “Tumor antigens and CTL clones isolated by a novel procedure” (Ludwig Institute for Cancer Research, priority 1998, dated 2008).

System: clone LB1137 H4.13
Assay: Peptide cytotoxicity assay, autologous target cells
Assay type: cell-based, human
Settings: effector to target ratio of 10:1
Excerpt: The sequence of the putative fragment of the MAGE-A4 protein encoded by this region was screened for prediction of an HLA-a2 binding peptide with the software available at the website of the National Institute of Health. Peptide […] (SEQ ID N O: 44) (MAGE-A4 230-239) had the highest score. It was synthesized and tested in a cytotoxicity assay at an effector to target ratio of 10:1. Peptide

GVYDGREHTV [MAGE-A4 peptide presented by HLA-A2]
sensitization of autologous target cells to lysis by CTL clone: sensitize
